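Growth conditions: 96-well plates. Treatment: test compound, 48 hours, 5 concentrations. Analysis: linear interpolation between bracketing concentrations; unreached endpoints set to highest concentration. Here, GI50 denotes the concentration required for 50% inhibition of growth.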 Activity calls are given as the source filed them. No stated cut-off is given here; in the data, active = GI50 up to about 1.1 µM and inactive = higher.
Tested on: NCI-H322M
Assay: NCI-60 cell line screen, 48 h

Structure (SMILES) | GI50
CC(=O)Nc1ccc(Nc2cc(O)nc(O)n2)cc1 | inactive: > 100 µM
CCOC(=O)Nc1nc(-c2ccccc2)c(C)s1 | inactive: 68.5 µM
O=C(O)C(=O)Cc1ccc2c(c1)OCO2 | inactive: > 100 µM
COc1ccc(-c2nc(O)c3ccccc3n2)cc1OC | inactive: > 100 µM
N=C(N)NNC(=O)C(=O)O | inactive: > 100 µM
Cc1nc2ccccc2c(=O)n1NC(=O)c1ccccc1[N+](=O)[O-] | inactive: > 100 µM
Cc1cccc2[s+]snc12 | inactive: > 100 µM
O=C1c2cccnc2C(=O)C2C3C=CC(C3)C12 (centres undefined) | inactive: 27.1 µM
O=c1oc2ccccc2cc1-c1cc2ccccn2c1 | inactive: > 100 µM
CCC(=O)Nc1ccc(NCC(=O)Nc2ccc(Cl)cc2)cc1 | inactive: 13.5 µM
CCOC(=O)C(=O)CC1=Nc2ccccc2SC(c2cccc(C)c2)C1 (centres undefined) | inactive: 21.6 µM
C=CCC(OCCOCC)c1cc(OCCOCC)ccc1OC (centres undefined) | inactive: > 100 µM
C(=N\OCc1ccccc1)/c1ncccc1C1OCCO1 | inactive: > 100 µM
Cc1cccc(N2C(=O)C3c4[nH]c5ccc(C)cc5c4C4CCC(C(C)(C)C)CC4C3C2=O)c1 (centres undefined) | inactive: 36.8 µM
CNC(=O)CNC(=O)N(C[C@@H]1CCCN1C(=O)[C@H](CC(C)C)NC(=O)OC(C)(C)C)C(C)C | inactive: > 100 µM
CC(C)Oc1c(N(Cc2ccccc2)c2ccccc2C2SCCCS2)c(=O)c1=O | inactive: 6.92 µM
Nc1ccc(Sc2c3ccccc3nc3ccccc23)cc1 | inactive: 22.5 µM
Nc1c(Br)c(=O)[nH]c(=O)n1COCCO | inactive: > 100 µM
CCN(CCCl)c1cc(CN(C)C)cc(NC(=O)C23CCC(C(=O)Nc4cc(CN(C)C)cc(N(CC)CCCl)c4)(CC2)CC3)c1 | inactive: 2.41 µM
Cc1ccc(OCC(=O)N2N=C(c3ccccc3)CC2(O)c2ccccc2)cc1 (centres undefined) | inactive: 77.6 µM
COc1cc(/C=C2\CCC/C(=C\c3cc(OC)c(O)c(OC)c3)C2=O)cc(OC)c1O | inactive: 3.9 µM
C=C1C2CCC3(CCC4C5(C)CCCC4(C=[N+](CCO)C5)C3C2)C1O (centres undefined) | inactive: > 100 µM
CCOC(=O)CCCO | inactive: > 100 µM

Structure (SMILES) | GI50
O=C1C=C(Br)C(=O)C12CCc1ccccc12 (centres undefined) | inactive: 37.3 µM
[O-]c1c2cc(-[n+]3c(-c4ccccc4)cc(-c4ccccc4)cc3-c3ccccc3)cc1COCCOCCOCCOCCOC2 | inactive: 53.8 µM
O=C1/C(=C/c2ccccc2)CN(C(=O)Oc2ccc([N+](=O)[O-])cc2)C/C1=C\c1ccccc1 | inactive: > 10 µM
S=C1N=C(Cl)/C(=C\c2ccco2)N1 | inactive: > 100 µM
O=c1c2cc(Br)ccc2nc(CCl)n1-c1ccc(O)c([N+](=O)[O-])c1 | inactive: 16.3 µM
Cc1nc(C)c(N2CCN(C(=O)NC(CCC(=O)O)C(=O)O)CC2)c(O)n1 (centres undefined) | inactive: > 100 µM
O=C1Cc2ccccc2CCc2ccccc21 | inactive: > 100 µM
c1ccc2c(c1)c1c(n2CCOCCN2CCCC2)CCCC1 | inactive: 42.5 µM
COc1ccc(OC)c(/N=C/c2cc(OC)c(OC)c(OC)c2)c1 | inactive: > 100 µM
CO/S(=N/S(=O)(=O)c1ccccc1)c1ccccc1[N+](=O)[O-] (centres undefined) | inactive: > 100 µM
CN(N=O)N1C(=O)SCC(c2ccccc2)(c2ccccc2)C1=O | inactive: 48.1 µM
O=C(O)c1nc2ccc(C(F)(F)F)cc2[nH]c1=O | inactive: > 100 µM
CSc1nc(C#N)c(N)n1C | inactive: > 100 µM
CCCCN/N=N/c1cn(C2OC(CO)C(O)C2O)c(=O)[nH]c1=O (centres undefined) | inactive: > 100 µM
Cn1c(=O)c2c(no[n+]2[O-])c2ccccc21 | inactive: 24.7 µM
Cc1occ2c1C(=O)CC1C2[C@@H](O)CC2C(C)(C)CCC[C@]12C (some centres undefined) | inactive: > 100 µM
CC1=NN(c2cccc(Cl)c2)C2(C1=Cc1ccccc1)C(Cl)C(=O)N2c1nc2ccccc2s1 (centres undefined) | inactive: 23.4 µM
COC(=O)C(=O)C(C(=O)C(=O)Nc1ccc(Cl)c(Cl)c1)c1nc2ccc(C(=O)c3ccccc3)cc2nc1O (centres undefined) | inactive: 66.4 µM
O=C1CSC2(CC(/C=C/c3ccccc3[N+](=O)[O-])=NN2c2cccc(S(=O)(=O)O)c2)N1c1nc2ccccc2s1 (centres undefined) | inactive: 25.5 µM
CC(C)(C)OC(=O)N[C@H]1CC(=O)c2ccccc2N(CC(=O)O)C1=O | inactive: > 100 µM
COCCCNC(=O)CC(=O)NCCCOC | inactive: > 100 µM
Cc1ns/c(=N\C(=S)N(C)C)n1C | inactive: > 100 µM
CC(C)(C)c1cc(C(=O)Nc2cc(Br)c(Br)cc2S(N)(=O)=O)cc(C(C)(C)C)c1O | inactive: 12.5 µM

Structure (SMILES) | GI50
C=C(C(=O)OCC)C(=O)OCC | inactive: > 100 µM
COc1ccc(/C=C2\Sc3nnc(-c4ccccc4)n3N=C2c2cc(F)c(Cl)cc2Cl)cc1OC | inactive: 79.1 µM
C=CCc1cccc2cc(C(=O)Nc3nc(C45CC6CC(CC(C6)C4)C5)cs3)c(=O)oc12 | inactive: 26.3 µM
O=C1C[C@H](COCc2ccccc2)NC(=O)C[C@H](COCc2ccccc2)NC(=O)C[C@H](COCc2ccccc2)N1 | inactive: > 100 µM
CC1=NOC(=O)/C1=C/c1ccccc1O | inactive: > 100 µM
O=C(c1ccc(Cl)c(Cl)c1)N(Cc1cccnc1)C(=S)N(Cc1cccnc1)C(=O)c1ccc(Cl)c(Cl)c1 | inactive: 27.7 µM
COc1ccc(C(=O)c2ccc(-n3cc(/C=C/[N+](=O)[O-])c4ccccc43)cc2)cc1 | inactive: > 100 µM
C=Cc1c(C)c2cc3nc(c4c5[nH]c(cc6nc(cc1[nH]2)C(C)=C6CC)c(C)c5C(=O)C4C(=O)OC)C(CCC(=O)OC)C3C (centres undefined) | inactive: > 100 µM
COC(=O)C1=C(c2cc(OC)c(OC)c(OC)c2)OC(c2cc(OC)c(OC)c(OC)c2)C1COC(C)=O (centres undefined) | inactive: 49.7 µM
CC(=O)Nc1c(C)cc2c(nc3n2CCC3O)c1[N+](=O)[O-] (centres undefined) | inactive: > 100 µM
NNC(=O)CC(=O)Nc1cccc(Cl)c1 | inactive: > 100 µM
COc1ccc(OCC(=N/NC(=O)c2ccncc2)/N=C/c2ccncc2)cc1 | inactive: > 100 µM
CN(CCN(C)C(=O)CCn1cc(F)c(=O)[nH]c1=O)C(=O)CCn1cc(F)c(=O)[nH]c1=O | inactive: > 100 µM
Oc1ccc2ccccc2c1/N=N/c1cc(Cl)ccc1Cl | inactive: 30.8 µM
NS(=O)(=O)c1ccc(NC(=O)c2cccn3c(=O)c4ccccc4nc23)cc1 | inactive: > 100 µM
CC1(C)CC(/C=C2/OC(=O)c3ccccc32)=C(C(N)=O)C(=O)O1 | inactive: > 100 µM
CC(O)(/C=C/c1ccccc1)P(=O)(O)c1ccccc1 (centres undefined) | inactive: > 100 µM
Cc1oc2ccccc2c(=O)c1Cn1nnc2ccccc21 | inactive: > 100 µM
Nc1nc(N)c2cc(-c3cc4ccccc4[nH]3)ccc2n1 | inactive: 32.1 µM
O=C1C=CC(=O)c2c1cc1ccccc1c2O | inactive: 17.7 µM
CSC(=O)C[C@@]12O[C@@H]([C@@H](C)C3CCC4[C@@H]5C(O)CC6=CC(=O)C=C[C@]6(C)C5CC[C@@]43C)C[C@](C)(O1)C(C)(C)O2 (some centres undefined) | inactive: 17.1 µM
Cc1ccc2c(O)cc(-c3ccc4ccccc4c3)nc2n1 | inactive: 4.47 µM
O=C(NC1=C(Cl)C(=O)c2ccccc2C1=O)c1ccccc1 | inactive: > 100 µM

Source: ChEMBL document CHEMBL1201862, “PubChem BioAssay data set” (2004)
